# The other results are listed elsewhere or left out.
# Tested on: PF3D7_0420300 AP2 domain 1 (GST-tagged)
# Assay: gcPBM binding intensity (ln(normalized median fluorescence intensity)); higher = stronger DNA binding
# Outline: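 Alexa488 anti-GST antibody, scanned at 488 nm, detected GST-tagged P. falciparum DNA-binding domains that had been expressed in E. coli and incubated for 1 h on an Agilent 4 × 180k array. The array carried primer-extended double-stranded 36-bp intergenic genomic probes and negative controls. Binding intensity is the highest Masliner-normalised natural-log median intensity across replicate spots of either orientation of each probe.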
row,Sequence,gcPBM binding intensity (ln)
1,AGCAATTGTGTTTTCACACATAAATATATTCCTCAC [CACACA_site5021],9.34
2,AATTAAACTCACACCACACACAAAAAAAAAAAAAAA [CACACA_site693],9.52
3,GGTCATATTTTTTGCACACAAAAAAAAATATAAAAT [CACACA_site3381],9.43
4,ACCTAAGAACTATTTACACACATATACAAAATATAT [CACACA_site2459],9.72
5,ATTGTTCTATGATTTGTACACACTTTTTTTTAAAAT [CACACA_site2825],9.74
6,AATAAAAAACTACAATATACAAAATTATTAAATCAA [GTGCAC_negctrl_site703],9.4
7,CATATAAAAATATGCACACACAGGAATACAAACATA [CACACA_site684],10.2
8,AAACGTACATAATACACACACATGTATCCATATAAA [CACACA_site5173],9.78
9,ATATATATATATAAAAGTACATGCTTATATATATAT [XGTACX_site3786],9.26
10,TTTAAAAATGCTACATGTACAAAATAAAATATAATA [XGTACX_site2905],9.28
11,AAGTTTATCACAGCCACGCACACATAATATATGTAT [CACACA_site3670],9.49
12,TATATAAACATACATACACACATACAATAAGTAAAA [CACACA_site5118],9.9
13,CACCCACTAATAAACACACACATATATATATATATA [CACACA_site389],9.62
14,ATTTTTTTTATTCAATGTACTTTTTTTTATATATAT [XGTACX_site4978],9.67
15,AATAAAATGAGATGTTGTACAGTTTTGATATATGCA [XGTACX_site3052],9.33
16,TACTTACCAAAATACACACACACACCCAATATATAA [CACACA_site1871],10.1
17,TTAAAAATATATGAATGTACATATATTTATATATAT [XGTACX_site77],8.97
18,TTTAAATTATGAAATTGTACATATAAAAATATTTTA [XGTACX_site4796],8.77
19,TTTTTTTTATTAGTGTGTACGCATTTATTTATACAT [XGTACX_site1599],9.48
20,TATATATTATTTAAAACACACAAAAAAAAAAATTAT [CACACA_site89],9.59
21,TATATTGAATGCAAAAGTACATTTGTGTAAATTTAT [XGTACX_site7611],9.11
22,TTTTTTTTTTTAAAATGTACACGTAATTACATATAT [XGTACX_site752],9.19
23,TGATGGTTACGTTTATGTACACATTACAGTTAGTAT [XGTACX_site998],9.29

row,Sequence,gcPBM binding intensity (ln)
1,TTTTTGTATTCTACCTTAACAATCTTAAAGATTTTT [CACACA_negctrl_site1157],9.04
2,TTAAAAATTATATAAGTGCATTAATATTTAGAACAA [GTGCAC_site9773],9.14
3,ACTACATTATTGCATTGTACTTTTTTTTTTTTTTTA [XGTACX_site4605],9.57
4,GAGTTAATATTTAAAAGTACAAGATGAATGTAAAAA [XGTACX_site5810],9.42
5,AAAATATATTAAGGCACACACATACATATATATATA [CACACA_site3723],9.81
6,AATATTACAAAATATTGTCCGTACAAATTTTTAATA [XGTACX_site8129],9.07
7,AAAAAAAAAAAAAAGACACACATATATATATATATA [CACACA_site633],9.15
8,GATGATAAAATATGTACACACAGTTTATACATTTTG [CACACA_site4055],9.56
9,ATATACATATATATGGGTACATATATTAATATATAT [XGTACX_site8358],9.2
10,TCTGTTAATATTTATACACACATATTTATTTATATA [CACACA_site6658],9.52
11,TTAACATATTATAAGTGTACATATTTATAAACAAGA [XGTACX_site8806],9.31
12,ATTTTGAAAAATAAAAGTACATATAATATATCTACA [XGTACX_site7185],8.94
13,CACTCCATATTATACACACACACAAATGAAAAAAAT [CACACA_site3019],10.1
14,TTTAGATATATGGTAGTGCATAATAAAAATATAGCC [GTGCAC_site9449],9.24
15,GCTTCTTAGTATACTTTATAAAATATATATTAAATA [XGTACX_negctrl_site57],9.27
16,TAAAATATAATAAAATGTACACGCATGCAATAGAAT [XGTACX_site7434],9.65
17,ATATCGGGTGCATTAACACACATTTATTTGAATAAA [CACACA_site2350],9.24
18,ATATTAAATATAATTTGTACGCATTTTTTTTTTTTT [XGTACX_site1910],9.3
19,ATATATCATAATAGAGGTACACATATTATATATATA [XGTACX_site782],9.29
20,TTTATAAATATATATACACACACATATATATTATAT [CACACA_site8099],9.74
21,AATTATAATTAATAGAGTACTGAATATATATATATA [XGTACX_site8683],9.26
22,TTCCCTTTTTTTATTTGTACTTATCTTTTAAATAAT [XGTACX_site2497],9.66
